# Results as given in paper PMC4336329 (PLoS ONE, 2015).
# The campaign covered roughly 310,000 compounds. About 2,200 (0.71%) showed an effect of 50% or more. Effects have a minus sign here. This is one part of the list.
# Biological target: human ether-à-go-go-related gene (hERG) potassium channel (human, UniProt Q12809)
# Assay: primary screen, population patch clamp on CHO cells stably expressing hERG
# Chain of human ether-à-go-go-related gene (hERG) potassium channel (Q12809 whole entry, looked up): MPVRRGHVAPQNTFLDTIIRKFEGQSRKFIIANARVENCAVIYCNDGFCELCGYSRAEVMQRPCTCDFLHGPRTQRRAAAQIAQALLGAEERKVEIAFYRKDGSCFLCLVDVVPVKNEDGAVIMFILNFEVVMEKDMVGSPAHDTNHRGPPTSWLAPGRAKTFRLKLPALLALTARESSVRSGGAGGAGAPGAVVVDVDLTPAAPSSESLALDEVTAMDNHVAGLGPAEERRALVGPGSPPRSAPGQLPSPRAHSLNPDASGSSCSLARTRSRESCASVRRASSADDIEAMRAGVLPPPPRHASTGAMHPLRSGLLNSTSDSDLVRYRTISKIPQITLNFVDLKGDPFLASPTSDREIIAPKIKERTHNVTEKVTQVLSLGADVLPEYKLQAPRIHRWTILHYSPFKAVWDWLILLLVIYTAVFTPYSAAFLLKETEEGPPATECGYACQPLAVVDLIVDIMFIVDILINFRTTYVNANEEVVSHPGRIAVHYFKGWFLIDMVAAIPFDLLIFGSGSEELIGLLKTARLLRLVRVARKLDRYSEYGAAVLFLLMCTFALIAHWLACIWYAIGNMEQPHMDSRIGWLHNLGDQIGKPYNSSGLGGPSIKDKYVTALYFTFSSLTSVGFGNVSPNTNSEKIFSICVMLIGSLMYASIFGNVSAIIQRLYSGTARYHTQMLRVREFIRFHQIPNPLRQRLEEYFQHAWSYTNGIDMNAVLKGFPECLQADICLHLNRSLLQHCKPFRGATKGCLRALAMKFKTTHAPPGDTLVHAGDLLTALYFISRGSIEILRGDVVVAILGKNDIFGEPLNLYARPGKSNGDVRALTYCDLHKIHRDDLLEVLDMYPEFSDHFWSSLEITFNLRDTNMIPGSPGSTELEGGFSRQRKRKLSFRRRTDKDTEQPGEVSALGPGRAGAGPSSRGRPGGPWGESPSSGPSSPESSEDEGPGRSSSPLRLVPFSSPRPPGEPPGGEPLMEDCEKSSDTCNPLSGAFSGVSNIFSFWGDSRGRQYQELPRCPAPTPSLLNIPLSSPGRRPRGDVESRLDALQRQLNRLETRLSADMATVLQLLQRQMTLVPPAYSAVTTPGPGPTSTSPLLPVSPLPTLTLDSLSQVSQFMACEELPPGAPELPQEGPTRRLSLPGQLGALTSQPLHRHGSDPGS
row,SMILES,"hERG current change (%, negative = inhibition) at 1uM [%]"
1,O=C(c1ccco1)N1CCN(C(=O)c2[nH]ncc2[N+](=O)[O-])CC1,5.34
2,Cc1cc(NC(=O)COC(=O)Cn2c(C)csc2=O)ccc1Br,5.55
3,Cc1cccc(C(=O)NCCCNC(=O)c2ccco2)c1,2.96
4,N#CC(C(=O)Nc1ccccc1)=C1Nc2ccccc2N1,15.1
5,Cc1ccccc1Nc1c(C)c(C)nc2ncnn12,14.7
6,Cc1cc(C)c(S(=O)(=O)N2CCCC(C(=O)NCCC3=CCCCC3)C2)c(C)c1 (centres unmarked),6.54
7,COCCn1c(SC(C)C(=O)NCC2CCCO2)nc2scc(-c3ccc(F)cc3)c2c1=O (centres unmarked),-22.4
8,COc1cccc(/C=C/C(=O)c2cccc([N+](=O)[O-])c2)c1,2.92
9,CC(=O)/C(=N\Nc1ccccc1)Sc1nncn1C,7.95
10,CCOC(=O)c1sc(Nc2nc3c(F)cccc3s2)cc1C,12
11,O=C(CSc1nc2ncc(Br)cc2[nH]1)c1ccc([N+](=O)[O-])cc1,-12.2
12,C=C(c1cccc2ccccc12)P(=O)(O)O,0.966
13,COC(=O)c1cn(C(=O)c2ccccc2F)nc1N,-7.5
14,COc1ccccc1N1CCN(C(CNS(=O)(=O)c2ccccc2)c2cccnc2)CC1 (centres unmarked),1.14
15,CCOC(=O)C1=C(C)Nc2ccccc2N=C1NC(=O)c1cccc(S(=O)(=O)NCc2ccccc2)c1,-7.52
16,C=CCNc1nc2c(c(=O)n(C)c(=O)n2C)n1CC(=C)C,8.49
17,NC(=O)NC(=O)C(c1ccccc1)N1CCN(S(=O)(=O)Cc2ccccc2)CC1 (centres unmarked),1.61
18,Nc1cc(=O)[nH]c(SCc2cccc(Cl)c2)n1,10.4
19,Cc1ccnc(N2CCC(C(=O)NNC(=O)COc3cccc4ccccc34)CC2)n1,10
20,CC(=O)Nc1ccc2c(c1)c1ccccc1n2C(C)=O,4.95
21,CC(C(N)=O)N1C(=O)C2C3C=CC(C3)C2C1=O (centres unmarked),9.87
22,O=C(Nc1nc2c(s1)CCCC2)c1ccc(S(=O)(=O)N2CCCc3ccccc32)cc1,10.6

row,SMILES,"hERG current change (%, negative = inhibition) at 1uM [%]"
1,COc1ccc(S(=O)(=O)N(C)CC(=O)NCCc2ccccc2)cc1OC,4.72
2,CCN1CCN(C(=O)C2=C(C(=O)O)CCCC2)CC1,7.69
3,Cc1ccc(N2C(=O)CC2(C#N)c2ccc(OCc3ccccc3)cc2)cc1 (centres unmarked),-21.7
4,Cc1ccc(S(=O)(=O)N2[C@@H](c3ccccc3)C(C(=O)O)=CC[C@H]2c2cccc(Cl)c2)cc1,8.85
5,O=C1C[C@@H](c2ccc(O[C@@H]3O[C@H](CO)[C@@H](O)[C@H](O)[C@H]3O)cc2)Oc2cc(O)ccc21,1.47
6,Cc1csc(Sc2nc3c(c(=O)[nH]c(=O)n3C)n2CCCc2ccccc2)n1,13.2
7,O=C(Cn1cc(C(=O)c2ccco2)c2ccccc21)NC1CCCCC1,8.74
8,COc1ccccc1CNC(=O)c1ccc(S(=O)(=O)N(C)C)cc1,13.9
9,Cc1ccc(C)c(NC(=S)Nc2ncccc2C)c1,7.56
10,Cc1nnsc1C(=O)N1CCCC(Nc2ccc(F)c(F)c2)C1 (centres unmarked),11.7
11,CCc1c(C)nc(Nc2nc(C)c3cc(OC)ccc3n2)[nH]c1=O,12.3
12,CCOc1ccc(-n2c(Cc3cc(=O)[nH]c(=O)[nH]3)nnc2SCC(=O)NC2CCCC2)cc1,13.2
13,O=C(Cn1nc(-c2cccc([N+](=O)[O-])c2)c2ccccc2c1=O)Nc1cccnc1,11
14,Cc1nc2c(C#N)c(C)[nH]n2c(=O)c1Cc1ccccc1,15
15,CCSc1nc2cc(C(=O)OC)ccc2c(=O)n1CC,2.14
16,CCc1nc(CN2CCN(Cc3ccc(F)c(F)c3)C(CCO)C2)c(C)[nH]1 (centres unmarked),16.6
17,COc1ccc(C(=O)Nc2sc3c(c2C(=O)O)CC(C)(C)OC3)cc1,-1.26
18,O=C1C=C(c2ccccc2)CCC1,14.2
19,CCCCn1c(=O)[nH]c(=O)c2c1nc(-c1ccc(-c3ccccc3)cc1)n2C,16.8
20,O=C(N/N=C/c1ccncc1)c1cc(C2CC2)nc2ccccc12,8.6
21,CCOC(=O)c1c(C)[nH]c(C(=O)OCC(=O)N2CCc3ccccc32)c1C,13.4
22,CCc1ccccc1NS(=O)(=O)c1ccc2c(c1)C(C)(C)C(=O)N2C,3.18

row,SMILES,"hERG current change (%, negative = inhibition) at 1uM [%]"
1,C#CCOCCOCCOCCNc1nc(N2CCN(C(=O)CCCCCCCCCCNC(=O)Cn3cc(C[C@@H](C)O)nn3)CC2)nc(N2CCN(C(=O)CCCCCCCCCCNC(=O)[C@H](CO)n3cc(CCCSC)nn3)CC2)n1,4.11
2,NC(=O)c1cccc([N+](=O)[O-])c1,2.08
3,CCCC12CN(C(=O)c3ccc([N+](=O)[O-])cc3)CC(C)(CN(C(=O)c3ccc([N+](=O)[O-])cc3)C1)C2=O,3.51
4,O=C(Nc1ccc(OCC(=O)N2CCN(S(=O)(=O)c3ccccc3)CC2)cc1)c1ccco1,12.1
5,Cc1[nH]c2ccccc2c1/C=N/NC(=O)c1cccc(S(=O)(=O)Nc2cccc(C(F)(F)F)c2)c1,13.2
6,Cc1ccc(S(=O)(=O)N2CC(C(=O)O)=CC[C@H]2c2ccc(Cl)cc2)cc1,12.2
7,Cc1nn(C(C)(C)C)c(N)c1-c1ccccc1,16.9
8,CCOC(=O)Cc1csc(NC(=O)COc2ccc(C)c(C)c2)n1,6.54
9,Cc1ccc(-c2nc(=S)c3c(n2CCN2CCOCC2)CC(C)(C)OC3)cc1,10.6
10,Cl.O=C(O)c1ccoc1CN1CCCCC1,-15
11,CC1=NN(c2ccc(Cl)c(C(=O)O)c2)C(=O)/C1=C/c1ccc(-c2ccccc2[N+](=O)[O-])o1,18.6
12,Cc1cc(C)cc(C(=O)N(CCc2ccccc2)C2=CC3CCC(C2)N3C)c1.Cl (centres unmarked),-20.5
13,COc1ccc(OC(C)C(=O)NC(C)c2ccccc2)cc1 (centres unmarked),9.81
14,COc1cccc(CN(C)C(=O)c2cc(S(=O)(=O)NCc3ccccc3)ccc2C)c1OC,13
15,CCOC(=O)/C(N=Nc1sc(C(=O)OC)c(C)c1C(=O)OCC)=C(\O)CCl,14.4
16,Cc1ccccc1C(=O)NC1CCN(CC(=O)Nc2ccc(Br)cc2)CC1,-15.4
17,O=C(COC(=O)c1nc(Cl)ccc1Cl)NNC(=O)c1cccs1,14
18,CN(C(=O)CSc1nnnn1C)C1(C#N)CCCCC1,9.69
19,CCOC(=O)c1c(C)[nH]c(C(C)=O)c1C,8.8
20,Cc1cccc(C)c1NC(=O)C1(N(Cc2ccco2)C(=O)CC2NC(=O)NC2=O)CCCC1 (centres unmarked),7.46
21,NS(=O)(=O)c1ccc(CCNC(=O)c2cccc(OC(F)F)c2)cc1,7.56
22,OCC1(CCCc2ccccc2)CCN(Cc2cc(F)ccc2F)CC1,-6.63

row,SMILES,"hERG current change (%, negative = inhibition) at 1uM [%]"
1,COc1ccc(OC)c(/C=N/NC(=O)C(=O)N2CCCC2)c1,1.25
2,CCc1ccccc1NC(=O)c1noc(C(C)C)c1[N+](=O)[O-],8.54
3,CCn1c(SCC(=O)Nc2cc(C)on2)nnc1-c1ccc(S(=O)(=O)N2CCCC2)cc1,9.62
4,CCCC(=O)OC1CCS(=O)(=O)c2sccc21 (centres unmarked),8.12
5,C/C(CC(=O)Nc1cc(C)ccn1)=N\NC(=O)c1ccc(C(C)(C)C)cc1,14.2
6,CCOC(=O)c1[nH]c(C)c(C(=O)/C=C/c2ccc(C(=O)O)cc2)c1C,14.1
7,O=C(CCC(=O)Nc1cccc([N+](=O)[O-])c1)N/N=C/c1cccs1,7.2
8,COc1ccc(-c2[nH]ncc2CN2CCC(C(=O)c3ccc(F)cc3)CC2)cc1,-70.5
9,O=C(COC(=O)c1cccs1)Nc1nc(-c2ccccc2)cs1,13.9
10,COc1ccc(N(CC(=O)NCc2cccs2)S(=O)(=O)c2ccc(F)cc2)cc1,8.53
11,Clc1ccc(COn2c(-c3ccccc3)nc3ccccc32)cc1,6.5
12,O=C(NCCCCCCNC(=O)C1CCCC1)C1CCCC1,10.7
13,CCOC(=O)N1CCN(c2cc(=O)n(-c3ccc(OCC)cc3)c(=O)[nH]2)CC1,12.2
14,C=C1C(C(=O)Nc2cccc(OC)c2)C1C(=O)Nc1cccc(OC)c1 (centres unmarked),14.9
15,CC1CCN(S(=O)(=O)c2cc(Br)cc(C(=O)NC3=NCCS3)c2)CC1,-0.219
16,Clc1ccc(CSCCc2ccncc2)cc1.O=P(O)(O)O,-4.31
17,COc1ccc(Nc2nc(N)c([N+](=O)[O-])c(N3CCOCC3)n2)cc1,6.04
18,NC(=O)N1CC(O)CC1C(=O)Nc1ccc(Cl)c(Cl)c1 (centres unmarked),14.7
19,CCN(CC)S(=O)(=O)c1cccc(-c2cn3cc(C)ccc3n2)c1,-6.37
20,CCCC(=O)Oc1ccccc1C1SCc2cc(C)c(C)cc2CS1,4.15
